In the supplement of paper PMC8728848:
Some of the results follow.

How the values were obtained:
Assay in all cases: glycan array binding signal (z-score within array); higher = stronger binding
Conditions in all cases: glycan notation: IUPAC condensed, linker removed
[1] = biological target: Neu5Ac(a2-6)Gal(b1-3)GlcNAc(b1-3)[Gal(b1-4)GlcNAc(b1-6)]Gal(b1-4)Glc
In short: (§1)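 From the Consortium for Functional Glycomics database, 3228 arrays were curated, keeping only those whose protein sequence was available. Binding is given as a within-array Z-score averaged across arrays sharing a protein sequence and across linkers. Negative Z-scores can be read as non-binding.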

Neu5Ac(a2-6)Gal(b1-4)Glc = biological target: Neu5Ac(a2-6)Gal(b1-4)Glc
In short: as §1

[2] = biological target: Neu5Ac(a2-6)Gal(b1-4)GlcNAc
In short: as §1

[3] = biological target: Neu5Ac(a2-6)Gal(b1-4)GlcNAc(b1-2)Man
In short: as §1

[4] = biological target: Neu5Ac(a2-6)Gal(b1-4)GlcNAc(b1-2)Man(a1-3)Man(b1-4)GlcNAc(b1-4)GlcNAc
In short: as §1

[5] = biological target: Neu5Ac(a2-6)Gal(b1-4)GlcNAc(b1-2)Man(a1-3)[Gal(b1-4)GlcNAc(b1-2)Man(a1-6)]Man(b1-4)GlcNAc(b1-4)GlcNAc
In short: as §1

[6] = biological target: Neu5Ac(a2-6)Gal(b1-4)GlcNAc(b1-2)Man(a1-3)[GlcNAc(b1-2)Man(a1-6)]Man(b1-4)GlcNAc(b1-4)GlcNAc
In short: as §1

[7] = biological target: Neu5Ac(a2-6)Gal(b1-4)GlcNAc(b1-2)Man(a1-3)[GlcNAc(b1-4)][Neu5Ac(a2-6)Gal(b1-4)GlcNAc(b1-2)Man(a1-6)]Man(b1-4)GlcNAc(b1-4)GlcNAc
In short: as §1

[8] = biological target: Neu5Ac(a2-6)Gal(b1-4)GlcNAc(b1-2)Man(a1-3)[Man(a1-6)]Man(b1-4)GlcNAc(b1-4)GlcNAc
In short: as §1

[9] = biological target: Neu5Ac(a2-6)Gal(b1-4)GlcNAc(b1-2)Man(a1-3)[Neu5Ac(a2-3)Gal(b1-4)GlcNAc(b1-2)Man(a1-6)]Man(b1-4)GlcNAc(b1-4)GlcNAc
In short: as §1

[10] = biological target: Neu5Ac(a2-6)Gal(b1-4)GlcNAc(b1-2)Man(a1-3)[Neu5Ac(a2-6)Gal(b1-4)GlcNAc(b1-2)Man(a1-6)]Man(b1-4)GlcNAc(b1-4)GlcNAc
In short: as §1

[11] = biological target: Neu5Ac(a2-6)Gal(b1-4)GlcNAc(b1-2)Man(a1-3)[Neu5Ac(a2-6)Gal(b1-4)GlcNAc(b1-2)Man(a1-6)]Man(b1-4)GlcNAc(b1-4)[Fuc(a1-6)]GlcNAc
In short: as §1

[12] = biological target: Neu5Ac(a2-6)Gal(b1-4)GlcNAc(b1-2)Man(a1-6)Man(b1-4)GlcNAc(b1-4)GlcNAc
In short: as §1

[13] = biological target: Neu5Ac(a2-6)Gal(b1-4)GlcNAc(b1-2)Man(a1-6)[Gal(b1-4)GlcNAc(b1-2)Man(a1-3)]Man(b1-4)GlcNAc(b1-4)GlcNAc
In short: as §1

[14] = biological target: Neu5Ac(a2-6)Gal(b1-4)GlcNAc(b1-2)Man(a1-6)[GlcNAc(b1-2)Man(a1-3)]Man(b1-4)GlcNAc(b1-4)GlcNAc
In short: as §1

[15] = biological target: Neu5Ac(a2-6)Gal(b1-4)GlcNAc(b1-2)Man(a1-6)[Man(a1-3)]Man(b1-4)GlcNAc(b1-4)GlcNAc
In short: as §1

[16] = biological target: Neu5Ac(a2-6)Gal(b1-4)GlcNAc(b1-2)[Neu5Ac(a2-6)Gal(b1-4)GlcNAc(b1-4)]Man(a1-3)[GlcNAc(b1-4)][Neu5Ac(a2-6)Gal(b1-4)GlcNAc(b1-2)[Neu5Ac(a2-6)Gal(b1-4)GlcNAc(b1-6)]Man(a1-6)]Man(b1-4)GlcNAc(b1-4)GlcNAc
In short: as §1

[17] = biological target: Neu5Ac(a2-6)Gal(b1-4)GlcNAc(b1-2)[Neu5Ac(a2-6)Gal(b1-4)GlcNAc(b1-4)]Man(a1-3)[GlcNAc(b1-4)][Neu5Ac(a2-6)Gal(b1-4)GlcNAc(b1-4)Man(a1-6)]Man(b1-4)GlcNAc(b1-4)GlcNAc
In short: as §1

[18] = biological target: Neu5Ac(a2-6)Gal(b1-4)GlcNAc(b1-2)[Neu5Ac(a2-6)Gal(b1-4)GlcNAc(b1-6)]Man(a1-6)[Neu5Ac(a2-6)Gal(b1-4)GlcNAc(b1-2)Man(a1-3)][GlcNAc(b1-4)]Man(b1-4)GlcNAc(b1-4)GlcNAc
In short: as §1

[19] = biological target: Neu5Ac(a2-6)Gal(b1-4)GlcNAc(b1-3)Gal(b1-3)GlcNAc
In short: as §1

[20] = biological target: Neu5Ac(a2-6)Gal(b1-4)GlcNAc(b1-3)Gal(b1-4)GlcNAc
In short: as §1

[21] = biological target: Neu5Ac(a2-6)Gal(b1-4)GlcNAc(b1-3)Gal(b1-4)GlcNAc(b1-2)Man(a1-3)[Neu5Ac(a2-6)Gal(b1-4)GlcNAc(b1-3)Gal(b1-4)GlcNAc(b1-2)Man(a1-6)]GalNAc
In short: as §1

[22] = biological target: Neu5Ac(a2-6)Gal(b1-4)GlcNAc(b1-3)Gal(b1-4)GlcNAc(b1-3)Gal(b1-4)GlcNAc
In short: as §1

B1: Banana lectin (Musa acuminata) (protein)
chain: MNGAIKVGAWGGNGGSAFDMGPAYRIISVKIFSGDVVDAVDVTFTYYGKTETRHFGGSGGTPHEIVLQEGEYLVGMKGEFGNYHGVVVVGKLGFSTNKKSYGPFGNTGGTPFSLPIAAGKISGFFGRGGDFIDAIGVYLEP
glycan array binding signal (z-score) [1]: -0.194
glycan array binding signal (z-score) (Neu5Ac(a2-6)Gal(b1-4)Glc): -0.197
glycan array binding signal (z-score) [2]: -0.195
glycan array binding signal (z-score) [3]: -0.191
glycan array binding signal (z-score) [4]: -0.179
glycan array binding signal (z-score) [5]: -0.142
glycan array binding signal (z-score) [6]: -0.102
glycan array binding signal (z-score) [7]: -0.192
glycan array binding signal (z-score) [8]: 0.857
glycan array binding signal (z-score) [9]: -0.145
glycan array binding signal (z-score) [10]: -0.16
glycan array binding signal (z-score) [11]: -0.168
glycan array binding signal (z-score) [12]: -0.187
glycan array binding signal (z-score) [13]: -0.159
glycan array binding signal (z-score) [14]: -0.159
glycan array binding signal (z-score) [15]: 2.13
glycan array binding signal (z-score) [16]: -0.193
glycan array binding signal (z-score) [17]: -0.192
glycan array binding signal (z-score) [18]: -0.194
glycan array binding signal (z-score) [19]: -0.194
glycan array binding signal (z-score) [20]: -0.195
glycan array binding signal (z-score) [21]: -0.155
glycan array binding signal (z-score) [22]: -0.193
